This is an account of results in the RNAGym collection of RNA variant scans (doi:10.7554/elife.90254).

The labels stand for the following.
B1: LINE1-full (parent)
chain: UACGUAGGUGGUUUUCCCCUGAUAGUGCUAAGGGGGCCUGGAAGUUUGGACUGGGCAGAGCUCAACACAGCGUGGCAAAGUGGCUGUGGCUAGACUGCCUCUCUGGAUUCCUCGUCACUCAGCAGGGCAUCUCUGAGAGAAAUGCC

The source gives no read counts; variants with many changes may rest on few reads.

Variants of B1 are the subject of this data set. As to the kind of experiment: self-cleavage, relative activity (ratio to wild type); higher = more cleavage; in vitro, sequencing; the parent is a self-cleaving ribozyme.
In the case of UACGUAGGUGGUUUUCCCCUGAUAGUGCUAAGGGGGCCUGGAAGUUUGGACUGGGCAGAGCUCAACAUAGCGUGGCAAAGUGGCUGUGGCUAGACUGCCUCUCUGGAUUCCUCGUCACACAGCAGGGCACCUCUGAGAGAAAUGCC [C68U U119A U130C], the self-cleavage came out at 0.16.

Turning to UACGUAGGUGGUUUUCCCCUGAUAGUGCUAAGGGGGCCUGGAAGUUUGGACUGGGCAGAGCUCAACACGGCGUGGCGAAGUGGCAGUGGCUAGACUGCCUCUCUGGAUUCCUCGUCACUCAGCAGGGCAUCUCUGAGAGAAAUGCC [A69G A77G U85A], the self-cleavage came to 0.

As to UACGUAGGUGGUUUUCCCCUGAUAGUGCUAAGGGGGCCUGGAAGUUUGGACUGGGCAGAGCUCAACAUAGCGUGGCAAAGUGGCUGUGGCUAGACUGCCUCUCUGGAUUCCUCGCCACUCAGCAGGGCUUCUCUGAGAGAAAUGCC [C68U U115C A129U], the self-cleavage came out at 0.38. For the variant UACGUAGGUGGUUUUCCCCUGAUAGUGCUAAGGGGGCCUGGAAGUUUGGACUGGGCAGAGCUCAACAUAGCGUGGCAAAGUGGCAGUGGCUAGACUGCCUCUCUGGAUUCCUCGUCACUCAGCAGGGCGCCUCUGGGAGAAAUGCC [C68U U85A A129G U130C A136G], the self-cleavage is 0.02. In the case of UACGUAGGUGGUUUUCCCCUGAUAGUGCUAAGGGGGCCUGGAAGUUUGGACUGGGCAGAGCUCAACAUAGCGUGGCAGAGUGGCUGUGGCUAGACUGCCUCUCUGGAUUCCUCGUCACUCAGCAGGGCGUCUCUGGGAGAAAUGCC [C68U A78G A129G A136G], the self-cleavage was found to be 0.13. For UACGUAGGUGGUUUUCCCCUGAUAGUGCUAAGGGGGCCUGGAAGUUUGGACUGGGCAGAGCUCAACACCGCGUGGCAAAGUGGCUGUGGCUAGACUGCCUCUCUGGCUUUCUCGUCACUCAGCUGGGCAUCUCUGAGAGAAAUGCC [A69C A107C C110U A124U], the self-cleavage amounted to 0.05. As to UACGUAGGUGGUUUUCCCCUGAUAGUGCUAAGGGGGCCUGGAAGUUUGGACUGGGCAGAGCUCAACACCGCGUGGCAUAGUGGCUGUGGCUAGACUGCCUCUCUGGAUUCCUCGUCACUCAGCAGGGCAUCGCUGAGAGAAAUGCC [A69C A78U U132G], the self-cleavage came out at 0. With UACGUAGGUGGUUUUCCCCUGAUAGUGCUAAGGGGGCCUGGAAGUUUGGACUGGGCAGAGCUCAACACGGCGUGGCGAAGUGGCUGUGGCUAGACUGCCUCUCUGGAUUCCUCGUCACUCAGCAGGGCAUCUCUGAGAGAAGUGCC [A69G A77G A142G], the self-cleavage is 1.2. As for UACGUAGGUGGUUUUCCCCUGAUAGUGCUAAGGGGGCCUGGAAGUUUGGACUGGGCAGAGCUCAACACGGCGUGGCGAAGUGGCUGUGGCUAGACUGCCUCUCUGGAUUCCUCGUCACUCAGCAGGGCACCUCUGAGAGAAAUGCC [A69G A77G U130C], the figure is 0; as for UACGUAGGUGGUUUUCCCCUGAUAGUGCUAAGGGGGCCUGGAAGUUUGGACUGGGCAGAGCUCAACACCGCGUGGCAAAGCGGCUGUGGCUAGACUGCCUCUCUGGAUUCCUCGUCACUCAGCAGGGCAUCUCUGUGAGAAAUGCC [A69C U81C A136U], 0. As to UACGUAGGUGGUUUUCCCCUGAUAGUGCUAAGGGGGCCUGGAAGUUUGGACUGGGCAGAGCUCAACACCGCGUGGCAAAGUGGCUGUGGCCAGACUGCCUCUCUGGAUUCCUCGUCACUCAGCAGGGCAUCUCAGAGAGAAACGCC [A69C U91C U134A U143C], the self-cleavage amounted to 0.08.

Turning to UACGUAGGUGGUUUUCCCCUGAUAGUGCUAAGGGGGCCUGGAAGUUUGGACUGGGCAGAGCUCAACACGGCGUGGCAUAGUGGCUGUGGCUAGACUGCCGCUCUGGAUUCCUCGUCACUCAGCAGGGCAUCUCUGAGAGGAAUGCC [A69G A78U U100G A140G], the self-cleavage turned out to be 0. As to UACGUAGGUGGUUUUCCCCUGAUAGUGCUAAGGGGGCCUGGAAGUUUGGACUGGGCAGAGCUCAACACGGCGUGGCAGGGUGGCUGUGGCUAGACUGCCUCUCUGGAUUCCUCGUCACUCAGCAGGGCAUCUCUGAGAGAGAUGCC [A69G A78G A79G A141G], the self-cleavage came to 0. In the case of UACGUAGGUGGUUUUCCCCUGAUAGUGCUAAGGGGGCCUGGAAGUUUGGACUGGGCAGAGCUCAACAUAGCGUGGCAAAGUGGCGGUGGCUAGACUGCCUCUCUGGAUUCCUCGUCACUCAGCAGGGCAUCUCUGAGAGAAAGGCC [C68U U85G U143G], the self-cleavage stood at 0.02.

With UACGUAGGUGGUUUUCCCCUGAUAGUGCUAAGGGGGCCUGGAAGUUUGGACUGGGCAGAGCUCAACAUAGCGUGGCAAAGUGGCUGUGGCUAGACUCCCUCUCUGGAUUCCUCGUCACUCAGCAGGGCAUCUCUGAGGGAGAAGCC [C68U G97C A138G A141G U143A], the self-cleavage is 0.07. Turning to UACGUAGGUGGUUUUCCCCUGAUAGUGCUAAGGGGGCCUGGAAGUUUGGACUGGGCAGAGCUCAACACGGCGUGGCAAGGUGGCUGUGGCUAGACUGCCUCUCUGGAUUCCUCGUCACUCAGCAGGGCAUCUCUGAGAGAAAAGCC [A69G A79G U143A], the self-cleavage was 1.12. For the variant UACGUAGGUGGUUUUCCCCUGAUAGUGCUAAGGGGGCCUGGAAGUUUGGACUGGGCAGAGCUCAACAUAGCGUGGCAAAGUGGCUGUGGCUAGGCUGCCUCUCUGGAUUUCUCGUCACUCAGCAGGGCAUCUCUGAGAGAAAUGCC [C68U A94G C110U], the self-cleavage is 0.03. Turning to UACGUAGGUGGUUUUCCCCUGAUAGUGCUAAGGGGGCCUGGAAGUUUGGACUGGGCAGAGCUCAACAUAGCGUGGCAAAGUGGCUGCGGCUAGACUGCCUCUCUGGAUUCCUCGUCACUCAGCUGGGCAUCUCUGAGGGAAAUGCC [C68U U87C A124U A138G], the self-cleavage came out at 0.01.

Consider UACGUAGGUGGUUUUCCCCUGAUAGUGCUAAGGGGGCCUGGAAGUUUGGACUGGGCAGAGCUCAACACGGCGUGGCAAAGUGGCUGUGGCUGGACUGCCUCUCUGGAUUCCUCGUCACUCAGCAGGGCAUCUCUGAGGGAAAUGCC [A69G A92G A138G], for which the self-cleavage is 0. UACGUAGGUGGUUUUCCCCUGAUAGUGCUAAGGGGGCCUGGAAGUUUGGACUGGGCAGAGCUCAACAUAGCGUGGCAAAGUGGCUGUGGCUAGACUGCCUCACUGGAUUCCUCGUCACUCAGCAGGGCAUCUCUGAGAGCAAUGCC [C68U U102A A140C]: the self-cleavage is 0.16.
